The values below come from the antibiotic and cytotoxicity screens of Wong et al. (2023).

SMILES strings stand for the structures. The list shows a part of the results.

This assay deals with S. aureus RN4220. Kind of assay: growth inhibition call (relative growth <= 0.2). The settings on record: 50 µM.
Take `COc1ccc([Si](C)(C)[C@@H]2[C@@H](CCOC(=O)NCCCCCC(=O)NO)O[C@@]3(C(=O)N(Cc4ccccc4)c4ccc(NC(=O)[C@@H](C)OC(=O)NCCCCCC(=O)NO)cc43)[C@H]2C)cc1`: the growth inhibition call is “inactive”.
With `CN(C)CCNC(=O)[C@H]1CN(Cc2cnn(C)c2)Cc2ccnn2C1`, the growth inhibition call was “inactive”.
To `COCC#Cc1ccc2c(c1)O[C@H](CN(C)Cc1ccc(F)cc1)[C@H](C)CN([C@@H](C)CO)S2(=O)=O` belongs “inactive”; to `COc1ccc(S(=O)(=O)N(C)C[C@@H]2Oc3ccc(NC(=O)Cn4cnnn4)cc3C(=O)N([C@H](C)CO)C[C@H]2C)cc1`, “inactive”; to `Cc1ccc(S(=O)(=O)Nc2ccc3c(c2)C(=O)N([C@@H](C)CO)C[C@@H](C)[C@@H](CN(C)C(=O)Nc2cccc4ccccc24)OCCCC[C@H](C)O3)cc1`, “inactive”.
The result for `Cc1ccc(S(=O)(=O)Nc2ccc3c(c2)C(=O)N([C@H](C)CO)C[C@H](C)[C@@H](CN(C)Cc2ccc(C(F)(F)F)cc2)OCCCC[C@@H](C)O3)cc1` reads “inactive”; that for `C[C@@H]1O[C@@H](Oc2c(-c3cc(O)c(O)c(O)c3)oc3cc(O)cc(O)c3c2=O)[C@H](O)[C@H](O)[C@H]1O`, “inactive”; that for `COc1ccc(S(=O)(=O)N(C)C[C@@H]2OCCCC[C@@H](C)Oc3ccc(NC(=O)CCC(F)(F)F)cc3C(=O)N([C@@H](C)CO)C[C@@H]2C)cc1`, “inactive”.
Regarding `COc1ccc(NC(=O)N(C)C[C@H]2OCCCC[C@H](C)Oc3ccc(NS(=O)(=O)c4c(C)noc4C)cc3C(=O)N([C@@H](C)CO)C[C@@H]2C)cc1`, the growth inhibition call was “inactive”.
`C[C@@H]1CCCCO[C@H](CN(C)S(C)(=O)=O)[C@@H](C)CN([C@@H](C)CO)C(=O)c2cc(N(C)C)ccc2O1`: the growth inhibition call was “inactive”.
To `COc1ccc([C@H]2CNCCN2)cc1` belongs “inactive”.
To `C[C@H]1CN([C@@H](C)CO)C(=O)c2cccc(NC(=O)c3ccncc3)c2O[C@H]1CN(C)S(=O)(=O)c1ccccc1` belongs “inactive”.
Consider `O=S1(=O)CC=CC1`, for which the growth inhibition call was “inactive”.
Consider `CC(=O)N1Cc2cc(C(=O)NCC(F)(F)F)nc(-c3cccc(-c4cc5ccccc5o4)c3)c2[C@H]1CCO`, for which the growth inhibition call is “inactive”.
Regarding `C[C@@H]1CCCCO[C@H](CN(C)S(=O)(=O)c2ccc(F)cc2)[C@H](C)CN([C@@H](C)CO)C(=O)c2cc(NC(=O)NC3CCCCC3)ccc2O1`, the growth inhibition call was “inactive”.
In the case of `C[C@H]1CN([C@@H](C)CO)C(=O)c2cccc(NC(=O)Nc3ccccc3)c2O[C@@H]1CN(C)Cc1ccc(Oc2ccccc2)cc1`, the growth inhibition call is “inactive”.
`COc1cc(CO)cc(I)c1O[C@H]1C=C(C(=O)NCCO)C[C@@H](NCc2ccc(F)cc2)[C@@H]1O`: the growth inhibition call was “inactive”.
To `C=CCOC(=O)[C@@H]1[C@H]2C(=O)O[C@H](c3ccccc3)[C@H](c3ccccc3)N2[C@H](c2ccc(OCCOC(=O)[C@@H]3C[C@@H]4C(=O)N5CCC[C@H]5C(=O)N4[C@@H]3c3ccc(O)cc3)cc2)[C@@]12C(=O)Nc1ccccc12` belongs “inactive”; to `Cc1ccc(S(=O)(=O)Nc2ccc3c(c2)C(=O)N([C@H](C)CO)C[C@H](C)[C@H](CN(C)C(=O)Cc2ccccc2)OCCCC[C@H](C)O3)cc1`, “inactive”.
The result for `C[C@H]1CCCCO[C@H](CN(C)C(=O)Nc2ccc(C(F)(F)F)cc2)[C@@H](C)CN([C@@H](C)CO)C(=O)c2cc(NS(=O)(=O)c3ccc(Cl)cc3)ccc2O1` reads “inactive”.
Turning to `COCC#Cc1ccc([C@@H]2[C@@H](CO)N3C(=O)CN(C(=O)C4CCOCC4)C[C@H]23)cc1`, the growth inhibition call was “inactive”.
The result for `Cc1ccc(S(=O)(=O)NC2=NCN(CCN3CCOCC3)CN2)cc1` reads “inactive”; that for `CO[C@@H]1CN(C)C(=O)c2cc(NS(=O)(=O)CC(F)(F)F)ccc2OC[C@H](C)N(C(=O)c2ccc3c(c2)OCO3)C[C@@H]1C`, “inactive”.
To `CC(C)OC(=O)[C@H](C)N[P@](=O)(OC[C@H]1O[C@@H](n2ccc(=O)[nH]c2=O)[C@@](C)(O)[C@@H]1O)Oc1ccccc1` belongs “inactive”; to `COc1cccc(S(=O)(=O)Nc2ccc3c(c2)[C@@H]2C[C@@H](CC(=O)NCc4ccccc4F)O[C@H](CO)[C@@H]2O3)c1`, “inactive”.
Take `COCCOC(=O)N1C(=O)[C@@]2(c3cc(C#CC4(O)CCCCCC4)ccc31)[C@H](c1ccc(OCCO)cc1)N1[C@H](c3ccccc3)[C@H](c3ccccc3)OC(=O)[C@H]1[C@@H]2C(N)=O`: the growth inhibition call was “inactive”.
As for `COc1ccc([Si](C)(C)[C@@H]2[C@@H](CC(=O)N3CCC[C@H]3CO)O[C@]3(C(=O)N(Cc4cccc(N5C(=O)c6cccc7cccc5c67)c4)c4ccccc43)[C@H]2C)cc1`, the growth inhibition call was “inactive”.
